According to PubChem BioAssay AID1159614 (National Center for Advancing Translational Sciences (NCATS), 2016):
About 65 (0.1%) of roughly 45,000 compounds were called active. Calls come from the whole dose curve; as a rule, active = well fitted activation curve with a large enough effect; inconclusive = small, poorly fitted or top-dose-only effect; inactive = no such curve, though single readings can be large or run the other way. Some of the results follow.

Molecular target: Galactocerebrosidase (Homo sapiens) (UniProt P54803)
Assay: A Novel Cell-Based Assay to Identify Small Molecules for B -Galactocerebrosidase; note: nearly all actives have a fitted effect of over 65% in size; for activation: 0% is about no effect
Conditions: 145M-Twi-hGALC-G270D cells (Twitcher mouse brain line with human GALC G270D), HMU-beta-Gal fluorescence, 48 h; series mostly up to 57.5 µM; activation: at the top concentration
In short: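 Live 145M-Twi cells (Twitcher mouse brain-derived, GALC-null) stably expressing human GALC-G270D, with a wild-type GALC line, were compound-treated. Residual GALC activity was then read as fluorescence from 0.1 mM final HMU-β-gal at pH 5.2; higher signal means activation.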
Potency is the fitted concentration of half-maximal effect.

UniProt P54803, sequence (P54803 whole entry, looked up): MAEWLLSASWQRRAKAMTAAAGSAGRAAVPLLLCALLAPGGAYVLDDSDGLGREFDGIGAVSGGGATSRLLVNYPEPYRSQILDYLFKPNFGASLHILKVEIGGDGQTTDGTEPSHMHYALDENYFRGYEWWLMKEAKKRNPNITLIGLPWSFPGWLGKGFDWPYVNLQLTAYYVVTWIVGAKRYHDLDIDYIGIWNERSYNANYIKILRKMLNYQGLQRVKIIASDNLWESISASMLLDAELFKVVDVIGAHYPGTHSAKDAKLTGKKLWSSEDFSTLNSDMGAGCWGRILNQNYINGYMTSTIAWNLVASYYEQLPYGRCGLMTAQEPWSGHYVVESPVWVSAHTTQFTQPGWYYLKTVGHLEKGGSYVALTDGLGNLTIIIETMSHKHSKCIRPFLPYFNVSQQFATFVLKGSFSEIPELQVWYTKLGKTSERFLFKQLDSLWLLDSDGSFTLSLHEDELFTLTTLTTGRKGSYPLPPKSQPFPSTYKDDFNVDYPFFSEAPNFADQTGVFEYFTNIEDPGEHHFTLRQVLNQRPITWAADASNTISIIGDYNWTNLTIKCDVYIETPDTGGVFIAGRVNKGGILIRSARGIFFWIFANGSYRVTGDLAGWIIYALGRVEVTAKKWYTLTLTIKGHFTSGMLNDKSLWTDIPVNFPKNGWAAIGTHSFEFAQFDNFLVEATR

Structure (SMILES)	activation	Potency
CCOc1ccc(CCNc2ncnc3onc(-c4ccc(F)cc4)c23)cc1OCC	inactive: -18.9%	–
CCOC(=O)COc1ccc([N+](=O)[O-])cc1-c1ccnc2cc(-c3ccc(C)cc3)nn12	inactive: -11.1%	–
Cc1ccc(C)c(N2CCN(CCCNC(=O)c3ccc4nc(N5CCCCC5)sc4c3)CC2)c1	inactive: -11.8%	–
Cc1ccc(-c2nnc(Nc3ccccc3)c3ccccc23)cc1S(=O)(=O)NCc1nc2ccccc2[nH]1	inactive: -23%	–
COc1ccc(C(=O)N(c2ccc(OC)cc2)S(=O)(=O)c2ccc3c(c2)n(C)c(=O)n3C)cc1	inactive: -18%	–
Cc1cccc(C)c1NS(=O)(=O)c1ccc(NS(=O)(=O)c2ccc3c(c2)OCCO3)cc1	inactive: -6.95%	–
COc1ccc(CNC(=O)c2cc(=O)c3cc(C)ccc3o2)cc1	inactive: -9.38%	–
C=Cc1ccc(COc2ccc3oc(-c4ccccc4)c(C(=O)OCC)c3c2)cc1	inactive: -21.4%	–
O=C(Nc1noc2ccccc12)c1ccc(F)cc1	inactive: -18.1%	–
CCOC(=O)c1ccc(NC(=O)C2(S(=O)(=O)c3ccc(Cl)cc3)CC2)cc1	inactive: -1.65%	–
COc1cccc(CNC(=O)CSC2=Nc3ccccc3C3=NC(C(C)C)C(=O)N23)c1 (centres undefined)	inactive: -27.2%	–
Cc1ccccc1NC(=O)CCC(=O)N1CC(C)Sc2ccccc21 (centres undefined)	inactive: -6.62%	–
O=C(Nc1cccc(Cl)c1Cl)c1cc(S(=O)(=O)NCCc2ccccc2)ccc1F	inactive: 20.3%	–
O=C(CN1C(=O)C2(SCC(=O)N2c2ccccc2)c2ccccc21)NCc1ccccc1 (centres undefined)	inactive: -12.4%	–
NC(=O)CSc1ncc2c(n1)-c1ccccc1N(Cc1ccc(Cl)cc1)S2(=O)=O	inactive: -25.2%	–
COc1ccccc1C(=O)Nc1cccc(C(=O)OCc2cc(=O)n3nc(C)sc3n2)c1	inactive: -13.2%	–
Cc1c(Cl)cccc1NC(=O)Cn1nnc2sc3c(c2c1=O)CCCC3	inactive: -9.53%	–
O=C(c1cc2ccc3cccnc3c2[nH]1)N1CCN(c2ccc(Cl)cc2)CC1	inactive: -13.5%	–
O=C(NCc1ccc2c(c1)CCN2C(=O)c1ccc(F)cc1)c1ccco1	inactive: -17.9%	–
Cc1nn(CC(=O)Nc2cc(F)ccc2F)c(=O)c2cccn12	inactive: -8.07%	–
CC(C)(C)c1ccccc1NC(=O)CSc1nc(-c2cccs2)cc(C(F)(F)F)n1	inactive: -2.98%	–
Cc1cc(Nc2ccc(Cl)cc2C)nc(-n2nc(C)cc2C)n1	inactive: -4.16%	–
CC(C)c1noc(-c2ccccc2OCC(=O)Nc2ccccc2[N+](=O)[O-])n1	inactive: -11.3%	–
CCC(NC(=O)Nc1cc(OC)ccc1OC)c1c(-n2cccc2)sc2c1CCN(CC)C2 (centres undefined)	inactive: -30.3%	–

Structure (SMILES)	activation	Potency
CCN(C(=O)c1cc2c(=O)n3cccc(C)c3nc2s1)c1ccc(C)c(C)c1	inactive: 8.79%	–
Cc1c(CNC2CCCCC2)c(C(=O)O)c(C)n1Cc1ccc(F)cc1	inactive: -5.75%	–
CCOc1ccc(C(=O)Nc2ccc(-n3nncc3-c3ccccc3)cc2)cc1OCC	inactive: -6.14%	–
CCC(=O)Nc1ccc2nc3c(=O)n(C)c(=O)n(C)c3nc2c1	inactive: -6.15%	–
CCOC(=O)c1c(NC(=O)CSc2cn(CCNC(=O)c3ccccc3OC)c3ccccc23)sc2c1CCC2	inactive: -6.78%	–
CC(C)c1nc2n(n1)C1(CCCCC1)[C@@H]1CCCC[C@@H]1N2	inactive: -6.96%	–
COc1cccc(CNC(=O)C2(c3cccs3)CCOCC2)c1	inactive: -13.7%	–
CCCCCC(=O)Nc1ccc(NC(=O)c2cc3ccccc3o2)c(OC)c1	inactive: 3.03%	–
O=C(CSc1nc2c([nH]c3ccccc32)c(=O)n1-c1cccc(Cl)c1)N1CCOCC1	inactive: -6.38%	–
Cc1oc(-c2cccc(Cl)c2)nc1CN1CCCC(C(=O)N2CCN(c3ccc(F)cc3)CC2)C1 (centres undefined)	inactive: -9.3%	–
Cc1cccc(Cn2c(C)c(CNC3CCCCCC3)c(C(=O)O)c2C)c1	inactive: -15.5%	–
COc1c(Cl)cc(C(=O)N(Cc2ccc(C)o2)C2CCS(=O)(=O)C2)cc1Cl (centres undefined)	inactive: -9.89%	–
O=C(Cn1c(=O)c2ccccc2n(CC(=O)Nc2ccc(F)cc2)c1=O)NCCc1ccccc1	inactive: 11.3%	–
CCOc1ccc(-n2c(CC)nc3c(cnn3-c3ccc(Cl)cc3)c2=O)cc1	inactive: -8.13%	–
COc1ccc(-c2nc3c4ccccc4n(CC(=O)N4CCN(c5ccc(F)cc5)CC4)c(=O)n3n2)cc1	inactive: -7.86%	–
Cc1ccc(C(=O)c2oc3ccccc3c2NC(=O)COc2ccccc2Cl)cc1	inactive: -16.6%	–
COc1cccc(NC(=O)Cn2c(=O)n(CCc3ccccc3)c(=O)c3c4c(sc32)CN(C(C)=O)CC4)c1	inactive: -13.2%	–
Cc1cc(C)n(-c2nc3ccccc3nc2N2CCN(c3cccc(C)c3C)CC2)n1	inactive: -4.73%	–
CCOC(=O)c1cc2c(=O)n3ccccc3nc2n(CC2CCCO2)c1=NC(=O)c1ccc(OC)cc1OC (centres undefined)	inactive: -9.45%	–
CCOc1ccc(NC(=O)NCc2ccc3c(c2)CCN3C(C)=O)cc1	inactive: 3.84%	–
CCCNC(=O)C(CC)n1nc(CC)n2c(cc3oc(C)cc32)c1=O (centres undefined)	inactive: -11.5%	–
CCCN(CCC)CCCNC(=O)Cn1cc2c(n1)-c1c(oc(C(=O)N3CCCC3)c1C)CC2	inactive: -2.77%	–
CCOC(=O)N1CCc2c(sc3c2C(=O)NC(c2cc(OC)c(O)c(OC)c2)N3)C1 (centres undefined)	inactive: -12%	–
COc1cccc(C(=O)c2cn(CC(=O)NCCc3ccccc3)c3nc(C)ccc3c2=O)c1	inactive: -6.63%	–

Structure (SMILES)	activation	Potency
CCCCC(CC)CNC(=O)c1ccc(Cn2c(=O)[nH]c3cc(OC)c(OC)cc3c2=O)cc1 (centres undefined)	inactive: 0.451%	–
CCOc1ccccc1NC(=O)CSc1nnc(CC)c(CC)n1	inactive: -15.1%	–
COc1ccc(-c2nn(C)c3sc(C(=O)Nc4cc(OC)c(OC)c(OC)c4)cc23)cc1OC	inactive: -38.9%	–
CCCN(C(=O)c1c(C)oc2ncn(CC(C)C)c(=O)c12)c1ccccc1C	inactive: -12%	–
CCCCC(=O)OCC(=O)[C@H]1[C@H](C)C[C@H]2[C@@H]3C[C@H](F)C4=CC(=O)C=C[C@]4(C)[C@@]3(F)[C@@H](O)C[C@@]21C	inactive: -12.1%	–
CCN1c2ccccc2-c2nc(SCC(=O)Nc3cc(OC)cc(OC)c3)ncc2S1(=O)=O	inactive: -2.64%	–
CC(C)n1c(SCC(=O)c2ccc(F)cc2)nc2c(sc3ccccc32)c1=O	inactive: -9.05%	–
Cc1cccc2nc(Cn3c(=O)n(-c4ccccc4)c(=O)c4c5c(sc43)CCC5)cc(=O)n12	inactive: -20.6%	–
COc1ccc(CCNC(=O)c2c(Nc3ccccc3C)sc(C(=O)c3ccccc3)c2N)cc1OC	inactive: -13.7%	–
COc1ccccc1OCCCn1c(C2CC(=O)N(c3ccc(F)cc3)C2)nc2ccccc21 (centres undefined)	inactive: -1.42%	–
COc1cccc(CNC(=O)c2cc3cc(C)ccc3n2C)c1	inactive: -11.7%	–
Cc1ccccc1OCC(=O)Nc1nnc(SCc2cc(=O)n3cccc(C)c3n2)s1	inactive: -6.68%	–
Cc1ccc(O)c(NC(=O)C2=CC(c3cccs3)=NS(=O)(=O)N2C)c1	inactive: -15.8%	–
COc1cccc(CN2CCCN(Cc3ccc(F)cc3)S2(=O)=O)c1	inactive: -6.03%	–
CCCOc1ccc(C(=O)Nc2cc(-c3nc4ccccc4[nH]3)ccc2C)cc1	inactive: -16.6%	–
CCN(CC)c1ccc(NC(=O)Cn2cc3c(n2)CCCC3)c(C)c1	inactive: -15.6%	–
CCc1ccc(NC(=O)CSc2nc3c([nH]c4ccccc43)c(=O)n2C)cc1	inactive: -4.6%	–
Cn1c(=O)n(C)c2cc(N3CCCCC3)c(NC(=O)Nc3ccc(Br)cc3)cc21	inactive: -3.72%	–
Cc1ccc(-n2nc(C(=O)N3CCN(c4cc(C)ccc4C)CC3)c3c4ccccc4n(C)c3c2=O)cc1	inactive: -17.1%	–
Cc1c(NC(=O)C(C)(C)C)cccc1-c1nc2ccccc2s1	inactive: -13.7%	–
Cn1cc(S(=O)(=O)N2CCc3ccccc32)cc1C(=O)Nc1ccc(C(F)(F)F)cc1	inactive: 2.04%	–
CCOc1ccccc1NC(=O)Cn1c(=O)n(-c2ccc(Cl)cc2)c(=O)c2oc3ccccc3c21	inactive: -6.38%	–
COc1ccc(N2CCN(C(CNC(=O)c3c(F)cccc3F)c3ccc4c(c3)OCO4)CC2)cc1 (centres undefined)	inactive: -12.2%	–
CCOC(=O)c1cc2c(=O)n3ccccc3nc2n(CC2CCCO2)c1=NC(=O)c1ccccc1OCC (centres undefined)	inactive: -5.67%	–

Structure (SMILES)	activation	Potency
Cc1ccc(CNC(=O)C2CCCN(c3nn4cc(-c5ccc(C)cc5)nc4s3)C2)cc1 (centres undefined)	inactive: -8.98%	–
Cc1ccc(-n2c(=O)c3ccc(C(=O)NCc4ccccc4Cl)cc3n(Cc3cccc(F)c3)c2=O)cc1	inactive: -8.84%	–
COCCn1c(SCc2ccccc2F)nc2c([nH]c3ccccc32)c1=O	inactive: -27.3%	–
CCOc1ccc(-n2cc(-c3ccccc3)c3c(NCc4ccccc4)ncnc32)cc1	inactive: -5.4%	–
COC(=O)Cc1c(C)c2ccc3c(c2oc1=O)CN(Cc1ccc(Cl)cc1)CO3	–	active: 25.1 µM
CCCSc1ncc(Cl)c(C(=O)Nc2ccc(S(=O)(=O)N3CCCCC3C)cc2)n1 (centres undefined)	inactive: -11.6%	–
COc1ccc(NC(=O)CCn2cnnn2)cc1	inactive: -6.94%	–
COc1cccc(NC(=O)C2CC(=O)N(c3ccc(Br)cc3)C2)c1 (centres undefined)	inactive: -6.27%	–
Cc1ccc(NS(=O)(=O)c2cn(C)c(C)n2)c(Br)c1	inactive: -15.5%	–
COc1ccc(CNC(=O)C2CCN(S(=O)(=O)N3CCC(C)CC3)CC2)c(OC)c1	inactive: -12.5%	–
COc1cc(CN(C(=O)c2ccc(C)cc2)C2CCS(=O)(=O)C2)cc(OC)c1OC (centres undefined)	inactive: -11.5%	–
Cc1cccc(CNC(=O)c2ccc(Cn3c(SCc4cccc(F)c4)nc4cccnc43)cc2)c1	inactive: 6.61%	–
CCC1CN(CC(=O)NCc2cccc(Br)c2)c2ccccc2S1 (centres undefined)	inactive: -6.14%	–
COc1ccc(-c2ccc(CCC(=O)O)n2-c2ccccc2C(F)(F)F)cc1	inactive: -2.31%	–
Cc1ccc(S(=O)(=O)c2cn(CC(=O)Nc3ccc4c(c3)OCO4)c3ccc(C)cc3c2=O)cc1	inactive: -12.7%	–
COc1ccc(-c2nc3ccccc3o2)cc1NC(=O)c1cc([N+](=O)[O-])ccc1N1CCOCC1	inactive: -10.2%	–
Cc1ccccc1OCc1nnc(SCc2cc(=O)c3cc(F)ccc3[nH]2)n1C	inactive: -2.43%	–
Cc1ccc2c(c1)c1c(c(=O)n(Cc3ccccc3)c(=O)n1Cc1cccc(F)c1)n2C	inactive: -7.43%	–
N#C/C(=C\c1cccc(F)c1)c1nc(-c2cc3ccccc3oc2=O)cs1	inactive: -11.4%	–
CCOC(=O)CN(Cc1ccccc1)C(C(=O)NC1CCCCC1)c1ccccc1 (centres undefined)	inactive: -8.25%	–
CCc1ccc(N2CC(C)Cn3c2nc2c3c(=O)n(CC(=O)O)c(=O)n2C)cc1 (centres undefined)	inactive: -13.9%	–
CC(Oc1ccccc1)C(=O)Nc1ccccc1C(=O)OCc1cc(=O)n2nc(C3CC3)sc2n1 (centres undefined)	inactive: -12.3%	–
